Source: a collection of fitness landscapes (doi:10.1016/j.celrep.2020.107928)
The full ranking holds about 81,000 sequences; the median of “one-hybrid fitness for binding parS DNA” is about -0.17, and the highest 2% start at about 0.51. Some of the results follow.

B1: Caulobacter ParB omega fusion; a variant is named by its letters at X, in order, B8GW30 (parent)
chain: MESVVVGEPGMSEGRRGLGRGLSALLGEVDAAPAQAPGEQLGGSREAPIEILQRNPDQPRRTFREEDLEDLSNSIREKGVLQPILVRPSPDTAGEYQIVAGERAWRAAQRAGLKTVPIMVRELDDLAVLEIGIIENVQRADLNVLEEALSYKVLMEKFERTQENIAQTIGKSXSHVANXMRLLXLPDEVQSYLVSGELTAXHARAIAAAADPVALAKQIIEGGLSVRETEALARKAPNLSAGKSKGGRPPRVKDTDTQALESDLSSVLGLDVSIDHRGSTGTLTITYATLEQLDDLCNRLTRGI

Variants of: B1
Experiment: one-hybrid fitness for binding parS DNA (scaled: cognate 1, non-cognate 0); higher = stronger binding
Details: with parS DNA site
Procedure, shortened: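 Selection: bacterial one-hybrid in E. coli USO, HIS3 reporter with the site 19 bp from the promoter, 48 hours at 37°C on M9-minus-histidine plus 0.1 mM IPTG and 5 mM 3-AT. Libraries were Caulobacter ParB with four randomised specificity codons, sequenced on Illumina before and after selection. Fitness is the rescaled log change in variant-to-wild-type read ratio, anchored to the cognate and non-cognate sites.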

| Variant | one-hybrid fitness for binding parS DNA |
| --- | --- |
| NAMS | ≤ 0.2 |
| AIPV | ≤ 0.2 |
| AVNF | ≤ 0.2 |
| GIDK | ≤ 0.2 |
| NNSK | ≤ 0.2 |
| LYNS | ≤ 0.2 |
| PTTE | ≤ 0.2 |
| NMRY | ≤ 0.2 |
| FSRY | ≤ 0.2 |
| ADDQ | ≤ 0.2 |
| VRGA | ≤ 0.2 |
| WAYC | ≤ 0.2 |
| SVKY | ≤ 0.2 |
| RYDS | 0.987 |
| VSIS | ≤ 0.2 |
| PWMR | ≤ 0.2 |
| RWYI | ≤ 0.2 |
| HWRK | ≤ 0.2 |
| RSNQ | ≤ 0.2 |
| QIVD | 0.241 |
| ACCM | ≤ 0.2 |
| HYAI | ≤ 0.2 |
| CKDT | ≤ 0.2 |
| SEYQ | ≤ 0.2 |

| Variant | one-hybrid fitness for binding parS DNA |
| --- | --- |
| CMST | ≤ 0.2 |
| AVCL | ≤ 0.2 |
| YSTP | ≤ 0.2 |
| RNVE | ≤ 0.2 |
| ESVG | ≤ 0.2 |
| NHSM | ≤ 0.2 |
| ADNF | ≤ 0.2 |
| HRDT | ≤ 0.2 |
| LREV | ≤ 0.2 |
| YSQL | ≤ 0.2 |
| WGPC | ≤ 0.2 |
| KMRC | ≤ 0.2 |
| VTQL | ≤ 0.2 |
| AKDQ | ≤ 0.2 |
| EPYR | ≤ 0.2 |
| ARDD | ≤ 0.2 |
| GIPG | ≤ 0.2 |
| RSTY | 0.456 |
| SLVD | ≤ 0.2 |
| VAWG | ≤ 0.2 |
| ACTY | ≤ 0.2 |
| ASAR | ≤ 0.2 |
| QYGV | ≤ 0.2 |
| TVIA | ≤ 0.2 |

| Variant | one-hybrid fitness for binding parS DNA |
| --- | --- |
| NESF | ≤ 0.2 |
| CGDW | ≤ 0.2 |
| QCRS | ≤ 0.2 |
| RQND | 0.221 |
| EAFM | ≤ 0.2 |
| WPYG | ≤ 0.2 |
| KKNR | ≤ 0.2 |
| PLNS | ≤ 0.2 |
| CIHG | ≤ 0.2 |
| QKLW | ≤ 0.2 |
| GHTP | ≤ 0.2 |
| DLER | ≤ 0.2 |
| DRHS | ≤ 0.2 |
| HSKG | ≤ 0.2 |
| TVRY | ≤ 0.2 |
| LMAE | ≤ 0.2 |
| EPIT | ≤ 0.2 |
| AVHG | ≤ 0.2 |
| RPTH | ≤ 0.2 |
| IDTT | ≤ 0.2 |
| VRMC | ≤ 0.2 |
| SMPA | ≤ 0.2 |
| KTSG | ≤ 0.2 |
| TDYG | ≤ 0.2 |

| Variant | one-hybrid fitness for binding parS DNA |
| --- | --- |
| DVFV | ≤ 0.2 |
| DAHL | ≤ 0.2 |
| ITFR | ≤ 0.2 |
| KFYS | ≤ 0.2 |
| GDNC | ≤ 0.2 |
| GRRT | ≤ 0.2 |
| DDVF | ≤ 0.2 |
| GFYT | ≤ 0.2 |
| QYHW | ≤ 0.2 |
| RRLK | ≤ 0.2 |
| HYRL | ≤ 0.2 |
| HGDC | ≤ 0.2 |
| CSWL | ≤ 0.2 |
| IHRV | ≤ 0.2 |
| HNSW | ≤ 0.2 |
| GAYT | ≤ 0.2 |
| LHGG | ≤ 0.2 |
| RRNK | ≤ 0.2 |
| YRRE | ≤ 0.2 |
| EANG | ≤ 0.2 |
| IINR | ≤ 0.2 |
| MCRA | ≤ 0.2 |
| WLTC | ≤ 0.2 |
| YQHG | ≤ 0.2 |

| Variant | one-hybrid fitness for binding parS DNA |
| --- | --- |
| FHLT | ≤ 0.2 |
| MSHT | ≤ 0.2 |
| RHQE | ≤ 0.2 |
| TWSD | ≤ 0.2 |
| VYWW | ≤ 0.2 |
| WLVR | ≤ 0.2 |
| TTSP | ≤ 0.2 |
| RNKR | ≤ 0.2 |
| EMEE | ≤ 0.2 |
| VAAG | ≤ 0.2 |
| PLQA | ≤ 0.2 |
| MACW | ≤ 0.2 |
| VKES | ≤ 0.2 |
| CTKT | ≤ 0.2 |
| PYEC | ≤ 0.2 |
| SFNS | ≤ 0.2 |
| LEAI | ≤ 0.2 |
| PFAI | ≤ 0.2 |
| DINT | ≤ 0.2 |
| MYHC | ≤ 0.2 |
| GPNN | ≤ 0.2 |
| TTAY | ≤ 0.2 |
| RKAH | ≤ 0.2 |
| LGVH | ≤ 0.2 |

| Variant | one-hybrid fitness for binding parS DNA |
| --- | --- |
| GMMA | ≤ 0.2 |
| TEGK | ≤ 0.2 |
| WCWG | ≤ 0.2 |
| HSHC | ≤ 0.2 |
| PVAI | ≤ 0.2 |
| PIDT | ≤ 0.2 |
| RIHP | ≤ 0.2 |
| MQMT | ≤ 0.2 |
| ASNT | ≤ 0.2 |
| NSST | ≤ 0.2 |
| RWRD | ≤ 0.2 |
| QCDL | ≤ 0.2 |
| LGVF | ≤ 0.2 |
| DTRA | ≤ 0.2 |
| AIED | ≤ 0.2 |
| SDIF | ≤ 0.2 |
| VPPN | ≤ 0.2 |
| LWHS | ≤ 0.2 |
| IWPG | ≤ 0.2 |
| WSHC | ≤ 0.2 |
| CTQC | ≤ 0.2 |
| RQVA | 0.486 |
| CKVC | ≤ 0.2 |
| NEGT | 0.217 |

| Variant | one-hybrid fitness for binding parS DNA |
| --- | --- |
| WLNL | ≤ 0.2 |
| KVCI | ≤ 0.2 |
| YCRT | ≤ 0.2 |
| AYRL | ≤ 0.2 |
| RQMF | 0.216 |
| QCYA | ≤ 0.2 |
| TRQV | ≤ 0.2 |
| DNGV | ≤ 0.2 |
| TREI | ≤ 0.2 |
| VEET | ≤ 0.2 |
| LLVE | ≤ 0.2 |
| SFSW | ≤ 0.2 |
| DMQR | ≤ 0.2 |
| ENHM | ≤ 0.2 |
| LVLG | ≤ 0.2 |
| PFVS | ≤ 0.2 |
| LQLC | ≤ 0.2 |
| IIPG | ≤ 0.2 |
| SPPW | ≤ 0.2 |
| EIVS | ≤ 0.2 |
| LRHN | ≤ 0.2 |
| PHLV | ≤ 0.2 |
| IRRL | ≤ 0.2 |
| PQKH | ≤ 0.2 |

| Variant | one-hybrid fitness for binding parS DNA |
| --- | --- |
| FRVV | ≤ 0.2 |
| RRHQ | ≤ 0.2 |
| ENNG | ≤ 0.2 |
| RPSG | ≤ 0.2 |
| LPTH | ≤ 0.2 |
| FCAR | ≤ 0.2 |
| SKWT | ≤ 0.2 |
| KMTA | ≤ 0.2 |
| YIMT | ≤ 0.2 |
| MLRA | ≤ 0.2 |
| CLIC | ≤ 0.2 |
| TGKC | ≤ 0.2 |
| DDSA | ≤ 0.2 |
| KVVI | ≤ 0.2 |
| GKGT | ≤ 0.2 |
| QARD | ≤ 0.2 |
| REGL | ≤ 0.2 |
| PSWC | ≤ 0.2 |
| ELSY | ≤ 0.2 |
| TDQN | ≤ 0.2 |
| WQLC | ≤ 0.2 |
| VSAN | ≤ 0.2 |
| KHGR | ≤ 0.2 |
| CKNT | ≤ 0.2 |

| Variant | one-hybrid fitness for binding parS DNA |
| --- | --- |
| LRLQ | ≤ 0.2 |
| SYVF | ≤ 0.2 |
| RWIT | 0.387 |
| FSGS | ≤ 0.2 |
| NLRD | ≤ 0.2 |
| PFRL | ≤ 0.2 |
| RWKV | ≤ 0.2 |
| TSAH | ≤ 0.2 |
| YRYC | ≤ 0.2 |
| LPGS | ≤ 0.2 |
| FSNT | ≤ 0.2 |
| WPNS | ≤ 0.2 |
| SMLV | ≤ 0.2 |
| LPPQ | ≤ 0.2 |
| MEDL | ≤ 0.2 |
| HKCY | ≤ 0.2 |
| SNAP | ≤ 0.2 |
| IPFS | ≤ 0.2 |
| NDFG | ≤ 0.2 |
| QCKR | ≤ 0.2 |
| QHDN | ≤ 0.2 |
| WEMC | ≤ 0.2 |
| MRGS | ≤ 0.2 |
| AKSH | ≤ 0.2 |

| Variant | one-hybrid fitness for binding parS DNA |
| --- | --- |
| FPSM | ≤ 0.2 |
| DMAY | ≤ 0.2 |
| YSVT | ≤ 0.2 |
| AFPA | ≤ 0.2 |
| HQAC | ≤ 0.2 |
| NPKH | ≤ 0.2 |
| MPHR | ≤ 0.2 |
| CFNA | ≤ 0.2 |
| PGAY | ≤ 0.2 |
| RLEA | 0.567 |
| SMSC | ≤ 0.2 |
| QKGP | ≤ 0.2 |
| WMHG | ≤ 0.2 |
| TSPL | ≤ 0.2 |
| RIQI | ≤ 0.2 |
| ITGL | ≤ 0.2 |
| KPEL | ≤ 0.2 |
| CNHS | ≤ 0.2 |
| LSLG | ≤ 0.2 |
| TKPI | ≤ 0.2 |
| HIRH | ≤ 0.2 |
| PLST | ≤ 0.2 |
| GFAR | ≤ 0.2 |
| LSVE | ≤ 0.2 |

| Variant | one-hybrid fitness for binding parS DNA |
| --- | --- |
| PAHM | ≤ 0.2 |
| YITR | ≤ 0.2 |
| TNRL | ≤ 0.2 |
| VFTD | ≤ 0.2 |
| RVPT | 0.529 |
| TAED | ≤ 0.2 |
| VAKA | ≤ 0.2 |
| EVSW | ≤ 0.2 |
| PFST | ≤ 0.2 |
| AACV | ≤ 0.2 |
| KPST | ≤ 0.2 |
| IASG | ≤ 0.2 |
| ARCY | ≤ 0.2 |
| MCHG | ≤ 0.2 |
| DVFL | 0.324 |
| IAGE | ≤ 0.2 |
| SITF | ≤ 0.2 |
| SHLC | ≤ 0.2 |
| GQET | ≤ 0.2 |
| MTNT | ≤ 0.2 |
| KFRV | ≤ 0.2 |
| THVW | ≤ 0.2 |
| NPAW | ≤ 0.2 |
| SPSN | ≤ 0.2 |

| Variant | one-hybrid fitness for binding parS DNA |
| --- | --- |
| SGQI | ≤ 0.2 |
| KMQA | 0.231 |
| TGTD | ≤ 0.2 |
| QSAC | ≤ 0.2 |
| LAPM | ≤ 0.2 |
| IYHR | ≤ 0.2 |
| WSMM | ≤ 0.2 |
| RAHD | ≤ 0.2 |
| FLMT | ≤ 0.2 |
| GTHT | ≤ 0.2 |
| YKSC | ≤ 0.2 |
| CYKS | ≤ 0.2 |
| AADL | ≤ 0.2 |
| DIHR | ≤ 0.2 |
| CDTR | ≤ 0.2 |
| VLMS | ≤ 0.2 |
| PVKI | ≤ 0.2 |
| VWNC | ≤ 0.2 |
| QSKK | ≤ 0.2 |
| QMIG | ≤ 0.2 |
| YWYV | ≤ 0.2 |
| RYDD | ≤ 0.2 |
| ISLR | ≤ 0.2 |
| HMMA | ≤ 0.2 |

| Variant | one-hybrid fitness for binding parS DNA |
| --- | --- |
| PLLP | ≤ 0.2 |
| FSSY | ≤ 0.2 |
| LCEP | ≤ 0.2 |
| EPTN | ≤ 0.2 |
| FQAG | ≤ 0.2 |
| TLEW | ≤ 0.2 |
| AHTF | ≤ 0.2 |
| TFYT | ≤ 0.2 |
| DSCY | ≤ 0.2 |
| MCLY | ≤ 0.2 |
| DCYS | ≤ 0.2 |
| RYFC | 0.965 |
| KFRT | ≤ 0.2 |
| SMGN | ≤ 0.2 |
| YPTD | ≤ 0.2 |
| DLAW | ≤ 0.2 |
| WETT | ≤ 0.2 |
| DNTF | ≤ 0.2 |
